Reference: PubChem BioAssay AID1476 (National Center for Advancing Translational Sciences (NCATS), 2009)
In all, about 200,000 compounds went through this assay and about 4,500 (2.2%) were called active. This list was built around the results that the source calls inconclusive (neither active nor inactive); the mix of calls is not that of the screen. Calls follow the shape of the dose curve; as a rule, active = well fitted inhibition curve with a large enough effect; inconclusive = small, poorly fitted or top-dose-only effect, or effect the other way; inactive = flat fitted curve, though single readings scatter. A potency beside an inconclusive call is a rough fit, not a confirmed value.

biological target: Cruzipain (Trypanosoma cruzi) (UniProt P25779); assay: qHTS Assay for Promiscuous and Specific Inhibitors of Cruzain (without detergent); conditions: purified cruzain, Z-FR-AMC fluorescence, no detergent; also: nearly all actives have a fitted effect of over 40% in size;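 as to max response, negative = inhibition: plate controls were enzyme without inhibitor for no effect and buffer without enzyme for full effect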
Procedure, shortened: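 Detergent-free condition (0.00005% Triton X-100) in acetate buffer pH 5.5 with DTT. 1.5 nM enzyme and compound were pre-mixed 15 min, then 2 uM Z-FR-AMC substrate added; reaction progress from fluorescence change between first and third reads (60 s).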
Potency is read from the fitted curve at half-maximal effect; tags tell the direction and shape of the fitted curve.

Chain of UniProt P25779 (P25779 whole entry, looked up): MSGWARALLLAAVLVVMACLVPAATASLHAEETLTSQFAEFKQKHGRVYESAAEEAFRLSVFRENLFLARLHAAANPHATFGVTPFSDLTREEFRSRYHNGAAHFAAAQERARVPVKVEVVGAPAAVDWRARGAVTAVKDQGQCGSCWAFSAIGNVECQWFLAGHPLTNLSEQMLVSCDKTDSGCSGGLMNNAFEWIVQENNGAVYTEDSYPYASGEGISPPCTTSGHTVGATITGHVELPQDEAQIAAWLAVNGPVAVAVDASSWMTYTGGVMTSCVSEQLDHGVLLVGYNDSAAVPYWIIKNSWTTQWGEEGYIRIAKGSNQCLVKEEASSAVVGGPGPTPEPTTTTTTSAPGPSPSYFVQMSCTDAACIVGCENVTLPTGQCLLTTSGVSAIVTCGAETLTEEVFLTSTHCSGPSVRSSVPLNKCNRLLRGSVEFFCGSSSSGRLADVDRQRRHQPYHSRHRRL

SMILES | Potency | max response, negative = inhibition
Cc1cc(C(=O)CSc2nn(-c3ccccc3)c(=S)s2)c(C)n1Cc1ccco1 | active: 25.1 µM | 
CN(C1=C(NC(=O)c2ccc(Cl)cc2)C(=O)c2ccccc2C1=O)c1ccccc1 | inconclusive: 15.8 µM [inhibitor, partial curve] | 
CCCCOC(=O)C(C#N)c1nc2ccccc2nc1N1CCN(Cc2ccc3c(c2)OCO3)CC1 (configuration not stated) | inconclusive: 25.1 µM [inhibitor, single point] | 
Cc1cccnc1NC(=O)CSc1nnc(Cc2ccccc2)o1 | inconclusive: 31.6 µM [inhibitor, single point] | 
Cn1c(=O)c2c(nc(N3CCN(c4ccccn4)CC3)n2Cc2ccccc2Cl)n(C)c1=O | inconclusive: 31.6 µM [activator, single point] | 
O=C1C2C(c3ccccc3)C=CC(c3ccccc3)C2C(=O)N1CCO (configuration not stated) | inconclusive: 20 µM [activator, partial curve] | 
CCCCC/C=C\C/C=C\C/C=C\C/C=C\CCCC(=O)NCc1ccoc1 | inconclusive: 3.16 µM [activator, full curve] | 
COc1ccc(-n2c(=S)[nH]c3cc(C(=O)Nc4ccc(OC)c(OC)c4)ccc3c2=O)cc1 |  | inactive: -2.5%
COc1ccc(S(=O)(=O)N(C)CC(=O)NCCC2=CCCCC2)cc1OC | inconclusive: 25.1 µM [activator, single point] | 
COC(=O)c1c(C)sc(-c2c(-c3ccc4c(c3)OCCO4)[nH]c3c2c(=O)[nH]c(=O)n3C)c1O |  | inactive: 7.92%
O=C(Nc1nc(-c2ccccc2)c(C(=O)c2ccccc2)s1)c1ccc(S(=O)(=O)N2CCCCC2)cc1 | active: 7.94 µM | 
CCOc1ccc(S(=O)(=O)N2CCN(c3ccccc3OC)CC2)c2cccnc12 | inconclusive: 39.8 µM [activator, single point] | 
COc1ccc(NC(=O)CN2C(=O)C(C)N=C(c3ccccc3F)c3cc(Cl)ccc32)c(OC)c1 (configuration not stated) | inconclusive: 31.6 µM [activator, single point] | 
CCOC(=O)Cn1c(-c2nonc2NC(=O)c2ccccc2F)nc2ccccc21 | active: 25.1 µM | 
CCCC(C)NC(=O)c1ccc2[nH]c3c(c2c1)CC(C)CC3 (configuration not stated) |  | inactive: -0.185%
Cc1cccc(NC(=O)CSc2nnc3c4ccccc4n(C)c3n2)c1 |  | inactive: -1.28%
O=C(NNc1nc2cc3c(cc2s1)OCO3)c1ccc(F)cc1 |  | inactive: 6.63%
O=S(=O)(c1cccs1)N1CN(Cc2ccc(Cl)cc2)c2nc3ccccc3nc21 | inconclusive: 31.6 µM [inhibitor, single point] | 
CCC(C)(C)n1nnnc1C(c1ccc(OC)c(OC)c1)N1CCN(c2ccc(OC)cc2)CC1 (configuration not stated) | inconclusive: 39.8 µM [activator, single point] | 
CCOC(=O)c1cc(CC)sc1/N=C/C1=C(O)CCCC1=O | inconclusive: 39.8 µM [activator, single point] | 
CC(=O)N1CCc2cc(S(=O)(=O)NC(CC(C)C)C(=O)N3CCc4ccccc4C3)ccc21 (configuration not stated) | inconclusive: 39.8 µM [activator, single point] | 

SMILES | Potency | max response, negative = inhibition
Cc1ccc(Nc2nc(-c3ccc(S(=O)(=O)N4CCCC4)cc3)cs2)cc1C | active: 12.6 µM | 
COc1cc(CN2CC(=O)N(c3ccc(C)cc3)C2=S)cc(OC)c1OC | inconclusive: 20 µM [activator, single point] | 
CCOC(=O)c1c(NC(=O)CSc2nc3cc(Cl)ccc3s2)sc(C(C)=O)c1C | active: 15.8 µM | 
O=C(/C=C/c1cn(CC(O)CN2CCc3ccccc32)c2ccccc12)c1ccc(Br)cc1 (configuration not stated) | inconclusive: 10 µM [inhibitor, single point] | 
O=C1c2ccccc2C(Nc2ccc(S(=O)(=O)N3CCCCCC3)cc2)N1Cc1ccco1 (configuration not stated) | inconclusive: 31.6 µM [inhibitor, single point] | 
CC(C)n1c(=NC(=O)c2ccco2)c(C#N)cc2c(=O)n3ccccc3cc21 | inconclusive: 20 µM [inhibitor, partial curve, poor fit] | 
Cc1cc(OCC(=O)Nc2ncn[nH]2)c(C)c(C)c1Br | inconclusive: 0.01 µM [activator, full curve, poor fit] | 
Cc1cc(C)cc(N2C(=O)CS(=O)(=O)C23C(=O)N(Cc2ccccc2)c2ccccc23)c1 (configuration not stated) | active: 6.31 µM | 
CCCCCCCCCCCC(=O)O[C@H](CC(=O)O)C[N+](C)(C)C | inconclusive: 15.8 µM [activator, single point] | 
CCOC(=O)C1CCCN(C(=O)C2CCN(S(=O)(=O)c3c(C)noc3/C=C/c3ccc(C)cc3)CC2)C1 (configuration not stated) | inconclusive: 15.8 µM [activator, partial curve] | 
Cc1c(C(=O)Nc2ccccc2)cn2c(nc3ccccc32)c1C#N | inconclusive: 31.6 µM [inhibitor, single point] | 
COc1cccc2sc(N(Cc3cccnc3)C(=O)c3ccc(S(=O)(=O)N(C)C)cc3)nc12 | inconclusive: 3.98 µM [activator, full curve] | 
CC(=O)c1nn(-c2cccc(Br)c2)cc1C(=O)c1cccc2ccccc12 | inconclusive: 39.8 µM [inhibitor, single point] | 
COc1ccc(CCNC(=O)C/C(C)=N/NC(=O)C23CC4CC(CC(C4)C2)C3)cc1OC | inconclusive: 39.8 µM [activator, single point] | 
CC(c1ccccc1)N(CCC(c1ccccc1)C1CCOC(C)(C)C1)C(=O)c1ccco1 (configuration not stated) | inconclusive: 39.8 µM [activator, single point] | 
COc1ccc(Cl)cc1N(CC(=O)Nc1ccc2c(c1)OCCO2)S(C)(=O)=O | inconclusive: 39.8 µM [activator, single point] | 
CCOc1cc(Br)c(C2C(C(=O)OC)=C(C)NC3=C2C(=O)c2ccccc23)cc1OCC (configuration not stated) | inconclusive: 25.1 µM [activator, partial curve] | 
O=C(Nc1cccc(C(F)(F)F)c1)c1ccc(F)c(S(=O)(=O)N2CCc3ccccc3C2)c1 | inconclusive: 39.8 µM [inhibitor, single point] | 
Cc1nn(Cc2ccccc2)c(Cl)c1C(=O)OCc1nnc(-c2ccccc2)o1 | inconclusive: 39.8 µM [activator, single point] | 
COc1cccc(Cn2cnc3c2c(=O)n(C)c(=O)n3C)c1 |  | inactive: 5.09%
COc1ccc(-c2nc(C)c(CCNC(=O)c3ccccc3Br)s2)cc1OC | inconclusive: 31.6 µM [activator, single point] | 

SMILES | Potency | max response, negative = inhibition
OC[C@@H]1[C@@H](c2ccccc2)C(c2cccc(Cl)c2)=NN1c1ccccc1 | active: 25.1 µM | 
COc1ccc(C(=O)Nc2cccc(-c3nc4cccnc4s3)c2C)c(OC)c1 |  | inactive: 15.5%
CCOC(=O)c1ccccc1NC(=O)Cn1c(=O)n(Cc2ccc(C(=O)NCc3ccc4c(c3)OCO4)cc2)c(=O)c2ccccc21 | inconclusive: 6.31 µM [inhibitor, single point] | 
COc1cccc(CC(NC(C)=O)C(=O)NC2CCN(c3nc(C)cc(C)c3C#N)CC2)c1OC (configuration not stated) | inconclusive: 31.6 µM [activator, single point] | 
CC1(C)CC[C@]2(C(=O)O)CC[C@]3(C)C(=CCC4[C@@]5(C)CC[C@H](O)C(C)(C)C5[C@H](O)C[C@]43C)C2C1 (some centres not stated) | inconclusive: 15.8 µM [activator, full curve] | 
Cc1ccc(-c2c(C)n3c4c(=O)n(C)c(=O)n(C)c4nc3n2CCCO)cc1 | inconclusive: 39.8 µM [activator, single point] | 
CCC(=O)N1CCc2cc(S(=O)(=O)NC(Cc3ccccc3)C(=O)NCc3ccc(F)cc3)ccc21 (configuration not stated) |  | inactive: -8.79%
COc1ccc(/C=N/NC(=O)c2nc(-c3ccccc3)cc(-c3ccccc3)n2)cc1 | inconclusive: 39.8 µM [inhibitor, single point] | 
CCN1C(=O)/C(=C2/C(=O)N3c4c(cc(OC(C)=O)cc42)C(C)=CC3(C)C)SC1=S | inconclusive: 15.8 µM [inhibitor, partial curve] | 
Cc1ccc(OCC(=O)OCc2cc(=O)n3c(C)csc3n2)cc1 |  | inactive: -12%
Cc1ccc2oc(C(=O)Nc3sc4c(c3C(=O)NCc3ccccc3)CCCC4)cc(=O)c2c1 |  | inactive: -6.78%
CCOc1ccc(NC(=O)c2ccc3nc(Cc4ccccc4)oc3c2)cc1 |  | inactive: -6.82%
CC(=O)N1CCCc2cc(S(=O)(=O)N(CC(C)C)CC(C)C)ccc21 | inconclusive: 31.6 µM [activator, single point] | 
CCOC(=O)c1ccc(N2CCN(c3ccccc3F)CC2)c(NC(=O)Nc2ccccc2)c1 | inconclusive: 31.6 µM [inhibitor, single point] | 
CCc1cccc(-n2c(=O)c3cccnc3n2CC(=O)Nc2ccccc2C(=O)OC)c1 |  | inactive: 1.46%
Cc1nn(-c2ccccc2)c2sc(C(=O)OCC(=O)N3CCCCC3)cc12 | inconclusive: 31.6 µM [activator, single point] | 
COc1ccc(CN(C(=O)c2ccc(-c3ccccc3)[nH]2)C(C(=O)NCC2CCCO2)c2ccc(C)o2)cc1 (configuration not stated) | inconclusive: 31.6 µM [activator, single point] | 
Cn1c(SCC(=O)N2CCOCC2)nc2sc3c(c2c1=O)CCCC3 | inconclusive: 39.8 µM [activator, single point] | 
COc1ccc(OC)c(NC(=O)c2nc(SCc3ccccc3F)ncc2Cl)c1 |  | inactive: 15.3%
COCCN1C(=O)/C(=C/c2ccc(Oc3ccc([N+](=O)[O-])cn3)c(OC)c2)SC1=Nc1ccccc1 | inconclusive: 20 µM [inhibitor, partial curve] | 
